The other results are listed elsewhere or left out.

The target in this experiment is T1, MBP-FoxP1dN (Mus musculus, UniProt P58462 326-579).
T1 sequence: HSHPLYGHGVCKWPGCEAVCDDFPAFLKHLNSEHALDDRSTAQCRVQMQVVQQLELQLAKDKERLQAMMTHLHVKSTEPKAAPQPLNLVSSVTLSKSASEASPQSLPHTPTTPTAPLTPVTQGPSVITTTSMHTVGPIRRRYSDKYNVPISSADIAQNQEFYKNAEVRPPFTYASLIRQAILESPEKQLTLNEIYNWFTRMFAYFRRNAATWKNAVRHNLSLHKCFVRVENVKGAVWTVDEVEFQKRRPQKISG
Description: PD-seq (MBP pull-down with sequencing); 20 mM Tris-HCl pH 7.5, 100 mM NaCl, 1.5 mM MgCl2, 0.4 uM protein, 0.1 uM dsDNA library, 30 min, room temperature, amylose pull-down; high values mean tight binding. The conditions noted are these: protein: recombinant; tags: His6-MBP; chain copies: 2; dsDNA, one strand shown. An outline of the steps: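 The N-terminus-lacking fragment of mouse FoxP3 or FoxP1 carried a His6-MBP tag and was expressed in E. coli. At 0.4 µM it was incubated with 0.1 µM Klenow-filled degenerate double-stranded DNA library for 30 min at room temperature in Tris pH 7.5 buffer with NaCl and MgCl2, and complexes were caught on amylose resin, washed three times, released with proteinase K, PCR-barcoded and Illumina-sequenced. Binding is reads-per-million enrichment of pull-down over input with replicates pooled.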
Turning to “GATGATTGTTCTCCCAGCTGATGAATTTATCAGGTCGAGTAAACAAATTTTCCTAATCTTTCTGTTCAAGCGCCATCTAC”, the binding signal was 0.981 RPM ratio (pull-down/input).
Then “GATGATTGTTCTCCCAGCTGATGAATTGTCGGTGTCGAGTAAACAAATTTTCCTAATCTTTCTGTTCAAGCGCCATCTAC”, with 1.04 RPM ratio (pull-down/input).
Then “GATGATTGTTCTCCCAGCTGATGAATTCCCATGTTCGAGTAAACAAATTTTCCTAATCTTTCTGTTCAAGCGCCATCTAC”, with 0.835 RPM ratio (pull-down/input); and “GATGATTGTTCTCCCAGCTGATGAATTGCGTAGATCGAGTAAACAAATTTTCCTAATCTTTCTGTTCAAGCGCCATCTAC”, with 1.09 RPM ratio (pull-down/input); and “GATGATTGTTCTCCCAGCTGATGAATTTTGTTCCTCGAGTAAACAAATTTTCCTAATCTTTCTGTTCAAGCGCCATCTAC”, with 0.981 RPM ratio (pull-down/input).
“GATGATTGTTCTCCCAGCTGATGAATTCTCACTGTCGAGTAAACAAATTTTCCTAATCTTTCTGTTCAAGCGCCATCTAC”: the binding signal was 0.801 RPM ratio (pull-down/input).
Then “GATGATTGTTCTCCCAGCTGATGAATTTAGATAATCGAGTAAACAAATTTTCCTAATCTTTCTGTTCAAGCGCCATCTAC”, with 1.4 RPM ratio (pull-down/input); and “GATGATTGTTCTCCCAGCTGATGAATTCTACTGCTCGAGTAAACAAATTTTCCTAATCTTTCTGTTCAAGCGCCATCTAC”, with 0.819 RPM ratio (pull-down/input).
As for “GATGATTGTTCTCCCAGCTGATGAATTTTCACTTTCGAGTAAACAAATTTTCCTAATCTTTCTGTTCAAGCGCCATCTAC”, the binding signal was 0.998 RPM ratio (pull-down/input).
In the case of “GATGATTGTTCTCCCAGCTGATGAATTGCCGCGGTCGAGTAAACAAATTTTCCTAATCTTTCTGTTCAAGCGCCATCTAC” it was 0.878 RPM ratio (pull-down/input); in that of “GATGATTGTTCTCCCAGCTGATGAATTCGGGGACTCGAGTAAACAAATTTTCCTAATCTTTCTGTTCAAGCGCCATCTAC”, 0.792 RPM ratio (pull-down/input); in that of “GATGATTGTTCTCCCAGCTGATGAATTTAACTAGTCGAGTAAACAAATTTTCCTAATCTTTCTGTTCAAGCGCCATCTAC”, 0.88 RPM ratio (pull-down/input).
Then “GATGATTGTTCTCCCAGCTGATGAATTTTTGGACTCGAGTAAACAAATTTTCCTAATCTTTCTGTTCAAGCGCCATCTAC”, with 0.873 RPM ratio (pull-down/input); and “GATGATTGTTCTCCCAGCTGATGAATTGTGCCGCTCGAGTAAACAAATTTTCCTAATCTTTCTGTTCAAGCGCCATCTAC”, with 0.979 RPM ratio (pull-down/input).
Turning to “GATGATTGTTCTCCCAGCTGATGAATTGATGAGTTCGAGTAAACAAATTTTCCTAATCTTTCTGTTCAAGCGCCATCTAC”, the binding signal is 1.01 RPM ratio (pull-down/input).
In the case of “GATGATTGTTCTCCCAGCTGATGAATTCCGGGTGTCGAGTAAACAAATTTTCCTAATCTTTCTGTTCAAGCGCCATCTAC” it was 0.748 RPM ratio (pull-down/input); in that of “GATGATTGTTCTCCCAGCTGATGAATTTCAAAGATCGAGTAAACAAATTTTCCTAATCTTTCTGTTCAAGCGCCATCTAC”, 0.87 RPM ratio (pull-down/input).
In the case of “GATGATTGTTCTCCCAGCTGATGAATTAAATCAATCGAGTAAACAAATTTTCCTAATCTTTCTGTTCAAGCGCCATCTAC” it was 1.01 RPM ratio (pull-down/input).

The values above are taken from PMC12820563, “FoxP3 forms a head-to-head dimer in vivo and stabilizes its multimerization on adjacent microsatellites”.
